# ± gives the standard deviation of the averaged measurements. The list shows a part of the results.
# Test system: PfAP2-I AP2 domain 3 (GST-tagged)
# Experiment: gcPBM binding intensity (ln(normalized median fluorescence intensity)); higher = stronger DNA binding
# Method in brief: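 Binding intensity is defined as the maximum Masliner-normalised natural-log median intensity across replicate spots for either probe orientation. It was measured on an Agilent 4 × 180k array of primer-extended double-stranded 36-bp intergenic genomic probes and negative controls, to which GST-tagged P. falciparum DNA-binding domains made in E. coli were applied for 1 h in 1× PBS with 1% milk, 0.2 mg/ml BSA, 0.5% salmon testes DNA and 0.03% Triton X-100. Detection was by Alexa488 anti-GST antibody and scanning at 488 nm.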
row,Sequence,gcPBM binding intensity (ln)
1,TGTATGTATAATTGAGTGCACAGAAAAAAAAAAGAA,11 ± 0.13
2,TAATTTTCATATTTCTGTACATATATTATAAATATA [XGTACX_site3480],7.76 ± 0.35
3,AGAAAAAAAAAAAAAAAACACACGGTACATTCAAAG [CACACA_site2],7.57 ± 0.67
4,TAATATATATATATTACACACACGTATTATTAAATA [CACACA_site432],7.83 ± 0.44
5,TCTAACATATTTTTAATACACACTTAAAAAAGTACT [CACACA_site1366],8.03 ± 0.3
6,ATTTACATTATATTGAATATGCCATATTATATTATT [CACACA_negctrl_site811],7.58 ± 0.67
7,AATGCTTTTCATCAAGTGCAATATGTTAATACAAAC [GTGCAC_site9619],10.3 ± 0.19
8,GTAGACTGAAACCACACACACATATATAAATATATT [CACACA_site6433],7.96 ± 0.38
9,AAAAAAAAAAATGGTTGTACTTTTTTTATTTGGTGC [XGTACX_site4498],7.84 ± 0.28
10,TATAAAAGTAGACACACACACATATAAATATAAATA [CACACA_site6567],7.72 ± 0.42
11,TCTATATCAACCAGTTGTACTGAATTTACTATATTT [XGTACX_site4205],7.58 ± 0.45
12,ATAGACTTTTGTTTTGTTTTATTTTATTGTATTGTA [CACACA_negctrl_site618],7.61 ± 0.71
13,TCTTTTTAAATATATACACACCGTGTCTACAGATAC [CACACA_site5784],7.87 ± 0.5
14,ACATGATGTCATAAATGTACGCACACATACATAAAC [XGTACX_site1198],8.34 ± 0.33
15,GAACATTTCACACAAAAAAAAAAAAATATATATATA [TGCATGCA_negctrl_site518],9.26 ± 0.028
16,TACTAATATAATAAAAGTACTTAAATAAATATATGT [XGTACX_site2220],7.79 ± 0.43
17,GTATAAAAGTTATATACACACAACAGAATTACATAT [CACACA_site6212],7.82 ± 0.57
18,TTTGAAAAAAATTAATGTACATTTGAAATGACATAT [XGTACX_site3902],7.67 ± 0.33
19,ATACCTTCTTTTATGTTTAATTAATATACTTTTTAT [CACACA_negctrl_site1557],8.39 ± 0.57

row,Sequence,gcPBM binding intensity (ln)
1,AAAAAAAAAAAACACACACACACAAATATATAAAAA [CACACA_site1171],7.85 ± 0.28
2,AATACATACATACATACACACATATAAATATATTAT [CACACA_site7650],7.9 ± 0.67
3,TTTGCCCAAAAAGGTACACACCACAATGTACATAAA [CACACA_site4599],8.185 ± 0.078
4,TCATATATGGGTAGTATACACACTGTATATTTAGGA [CACACA_site2844],7.79 ± 0.7
5,TTTTATTTAAATACACGTACATAATGTATATATATA [XGTACX_site7160],8.71 ± 0.51
6,AGATAAAATATATATGCACACACATATATATTTCAT [CACACA_site9183],9.255 ± 0.007
7,ATTCTATATAAATATACACACATATATAAAATACAT [CACACA_site2293],7.8 ± 0.57
8,TTAATAATTAATATATGTACTGATAAATAACATATA [XGTACX_site3966],7.54 ± 0.19
9,TAATTATTTAAAAAGAGTACATTTTTTTTTTTTTTT [XGTACX_site1060],8.22 ± 0.49
10,TGTTTGTAATTATGTATGCACTTTTTTGTATGTGTG [GTGCAC_site9668],9.575 ± 0.035
11,ACATATCTATCGTTTTTAATTGTATATTATTATAAC [TGCATGCA_negctrl_site144],7.58 ± 0.65
12,ATATTCTTGTTTAATACACACTGTAGTATTATATAT [CACACA_site4400],8.07 ± 0.6
13,AGAAAAAAACAACATGCACACGCACCCACAAAAAAA [CACACA_site7908],9.06 ± 0.18
14,TCCCACTGTTATATTGAAAAAAAAAAAAAAAAAAAA [TGCATGCA_negctrl_site288],8.05 ± 0.44
15,TCTTGTATATGTTAAAGTACACAACAATATATATAT [XGTACX_site6814],9.1 ± 0.17
16,AATTATATGCTTAATACGCACACGGGAAAAAAAAAA [CACACA_site1376],8.82 ± 0.59
17,TTTTCAAAAATATACACACACATAAATATCTGTATA [CACACA_site4586],7.75 ± 0.52
18,TAAATAAAAAAAAATCGTACATATATTTTATATATG [XGTACX_site3293],7.39 ± 0.21
19,TCGTAATAATAGTTGAGTACGCACTAATATGTCAAT [XGTACX_site643],8.59 ± 0.27

row,Sequence,gcPBM binding intensity (ln)
1,TATTTACATTTTAGTAGTACATATATGTATATATAT [XGTACX_site6839],8.32 ± 0.6
2,TTTATTTGTAACGGTTGTACTTGTATATCATTATGA [XGTACX_site4281],7.72 ± 0.4
3,TAGTGATATAATTATGTGCACTTAATACAGGTCGAT,10.9 ± 0.3
4,CTTAAATTTAAGTTCACACATATTGGTCATTTATAT [CACACA_site5006],7.71 ± 0.51
5,CACTAAAATAGACACACACACACACGGATATAAATA [CACACA_site7873],7.99 ± 0.32
6,TAGATACATACACGCACACACATATATATATATATA [CACACA_site12],9.41 ± 0.56
7,CCACATTAAAAAAAAACACACATATATTATAGATAT [CACACA_site6662],7.57 ± 0.52
8,AATGTACGTTTTATAACACACACACTAATAAAAAAA [CACACA_site9286],8.23 ± 0.36
9,ATCTTCAAAAATATTAGTACACATGTATCATGAATT [XGTACX_site3872],8.245 ± 0.064
10,TACTAAGAATTAATATAACAAAATAAAAAAAAAAAA [XGTACX_negctrl_site346],7.93 ± 0.59
11,ATACAGATATATAATACACACATAAATGTAACATTT [CACACA_site5864],7.86 ± 0.47
12,TGTATGTATAAAAACGCATGTATGTATTTTACAATA [TGCATGCA_site767],7.57 ± 0.61
13,ATGTATATATATATATGTACTAATTAGTAGTTTACG [XGTACX_site6272],7.97 ± 0.26
14,AAAATTAAAAATAACACACACATATATATATTTATA [CACACA_site2776],7.66 ± 0.34
15,GATATTTTTTTCGAAAGTACAAAAAAAAATATTTCC [XGTACX_site4389],8.06 ± 0.22
16,ATATATATACCAAGTAGTACATTCTACAACTAATGT [XGTACX_site8653],8.24 ± 0.57
17,AAAATAAAAATACACATTTTTTTTTTTTTTTTTTTT [TGCATGCA_negctrl_site515],9.37 ± 0.15
18,TTTTTTTTTGTTTACACACCCAAATCACATACATAT [CACACA_site4052],8.31 ± 0.42
19,TTTTTTTTTTTTTTTGCACACTTGATTTGAGCTTAT [CACACA_site4042],9.62 ± 0.38
